Experimental findings from article PMC4336329 (PLoS ONE, 2015) are described below.

About 14,000 (4.5%) of roughly 310,000 compounds showed an effect of 50% or more. The effect is printed as a negative number. This is one part of the list.
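Also: peak tail current of the secondary pulse compared with the same well before compound.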

Chain of human ether-à-go-go-related gene (hERG) potassium channel (Q12809 whole entry, looked up): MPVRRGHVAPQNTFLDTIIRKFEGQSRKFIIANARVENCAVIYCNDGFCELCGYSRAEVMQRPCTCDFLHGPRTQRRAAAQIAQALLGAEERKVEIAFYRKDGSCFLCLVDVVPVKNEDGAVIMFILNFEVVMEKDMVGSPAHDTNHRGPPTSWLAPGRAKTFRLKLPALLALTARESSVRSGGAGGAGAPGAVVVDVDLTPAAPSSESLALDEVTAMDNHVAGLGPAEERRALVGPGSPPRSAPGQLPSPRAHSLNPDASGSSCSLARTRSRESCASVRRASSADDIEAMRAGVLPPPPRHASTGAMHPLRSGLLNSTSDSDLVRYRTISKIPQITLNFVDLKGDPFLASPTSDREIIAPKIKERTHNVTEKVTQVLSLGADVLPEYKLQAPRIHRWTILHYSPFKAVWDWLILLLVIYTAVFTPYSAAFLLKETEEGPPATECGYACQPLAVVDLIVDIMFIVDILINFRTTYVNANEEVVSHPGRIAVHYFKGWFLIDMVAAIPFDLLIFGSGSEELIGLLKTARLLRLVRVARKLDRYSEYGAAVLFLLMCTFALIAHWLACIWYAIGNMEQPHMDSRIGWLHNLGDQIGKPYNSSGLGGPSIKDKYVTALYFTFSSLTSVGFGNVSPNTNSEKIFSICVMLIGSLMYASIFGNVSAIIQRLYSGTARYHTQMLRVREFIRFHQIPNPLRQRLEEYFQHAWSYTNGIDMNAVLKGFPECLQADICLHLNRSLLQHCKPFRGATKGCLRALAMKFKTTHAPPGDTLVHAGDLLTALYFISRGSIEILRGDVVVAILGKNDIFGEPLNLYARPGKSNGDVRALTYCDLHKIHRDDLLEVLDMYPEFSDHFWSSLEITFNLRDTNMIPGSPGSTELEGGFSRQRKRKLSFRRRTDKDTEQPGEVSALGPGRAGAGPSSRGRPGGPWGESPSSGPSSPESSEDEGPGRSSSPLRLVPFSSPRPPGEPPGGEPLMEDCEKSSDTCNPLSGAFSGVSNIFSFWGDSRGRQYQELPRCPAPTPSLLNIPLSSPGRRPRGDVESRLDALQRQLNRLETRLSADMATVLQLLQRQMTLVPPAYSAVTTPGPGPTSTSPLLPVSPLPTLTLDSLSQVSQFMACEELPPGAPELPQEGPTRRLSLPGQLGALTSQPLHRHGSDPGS

This assay has as its target human ether-à-go-go-related gene (hERG) potassium channel (human, UniProt Q12809). As to the kind of experiment: primary screen, population patch clamp on CHO cells stably expressing hERG.
Take `Nc1cc(=O)[nH]c(SCc2nc3ccccc3n2Cc2ccccc2)n1`: the “hERG current change (%, negative = inhibition) at 10uM” value is -41.1%.

For the compound `Cc1ccc(S(=O)(=O)N2CCN(C(=O)CSc3ccc(Cl)cc3)CC2)cc1`, the “hERG current change (%, negative = inhibition) at 10uM” value stood at 17%.

As for `CN(CCOc1ccccc1)CC(=O)Nc1ccc(Br)cc1F`, the “hERG current change (%, negative = inhibition) at 10uM” value was 6.09%.

In the case of `COc1cc(NC(=O)c2cc([N+](=O)[O-])ccc2NC(=O)CN2CCN(c3ccccn3)CC2)cc(OC)c1`, the “hERG current change (%, negative = inhibition) at 10uM” value is recorded as -45.3%.

In the case of `Cc1ncc(CO)c(CNc2ccc(-c3nc4ccccc4[nH]3)cc2)c1O`, the “hERG current change (%, negative = inhibition) at 10uM” value is reported as 19.8%.

Turning to `COc1cc(/C=N/n2nnnc2N)cc(Cl)c1OC`, the “hERG current change (%, negative = inhibition) at 10uM” value is -10.5%.

Regarding `COc1ccc(S(=O)(=O)NCCSCc2cccs2)cc1`, the “hERG current change (%, negative = inhibition) at 10uM” value is -33.6%.

Take `COc1ccccc1OCC(=O)NCC(C)NC(=O)COc1ccccc1OC` (centres unmarked): the “hERG current change (%, negative = inhibition) at 10uM” value was 4.93%.

Turning to `Cc1cccc(Nc2nc(-c3ccc(O)cc3O)cs2)n1`, the “hERG current change (%, negative = inhibition) at 10uM” value is recorded as 3.52%.

On to `CCn1c(SCC(=O)Nc2cccc(F)c2)nnc1-c1cc2cc(Br)ccc2o1`, for which the “hERG current change (%, negative = inhibition) at 10uM” value is on record as 19.8%.

With `COc1ccc(Br)cc1CN(C)C(=O)c1ccncc1`, the “hERG current change (%, negative = inhibition) at 10uM” value is listed as -2.7%.

Regarding `CCCOc1ccc(CSCCNC(=S)Nc2ccccc2)cc1`, the “hERG current change (%, negative = inhibition) at 10uM” value came to 16%.

Take `CC(=O)n1cc([C@H]2C=C(C(=O)NCc3ccccc3)O[C@@H](OCc3ccc(CO)cc3)C2)c2ccccc21`: the “hERG current change (%, negative = inhibition) at 10uM” value is 15.6%.

As for `O=C(CCC(F)(F)F)N1CCCC(N2CCN(c3cccc(Cl)c3)CC2)C1` (centres unmarked), the “hERG current change (%, negative = inhibition) at 10uM” value was -46.8%.

On to `C=CCNc1nc2ccccc2c(=O)[nH]1`, for which the “hERG current change (%, negative = inhibition) at 10uM” value worked out at 23.2%.

On to `CC(C)C(NC(=O)c1ccco1)C(=O)OCC(=O)NCCc1ccccc1` (centres unmarked), for which the “hERG current change (%, negative = inhibition) at 10uM” value is listed as 14.8%.

Turning to `COC(=O)CC1=C(C(=O)OC)C2(C(=O)N(C)c3ccccc32)C(C#N)=C(N)O1` (centres unmarked), the “hERG current change (%, negative = inhibition) at 10uM” value is recorded as 14.7%.

Take `O=c1nc(SCc2cccc(C(F)(F)F)c2)nc2ccccn12`: the “hERG current change (%, negative = inhibition) at 10uM” value is reported as -37%.

With `COCCNC(=O)c1cc(C(=O)CC(C)C)c[nH]1`, the “hERG current change (%, negative = inhibition) at 10uM” value is 14.1%.

Take `Cc1ccc(C(=O)Nc2ccc3cn[nH]c3c2)cc1S(=O)(=O)N1CCOCC1`: the “hERG current change (%, negative = inhibition) at 10uM” value is on record as -8.78%.

Consider `Cc1nonc1OCCCNc1ccc([N+](=O)[O-])cc1Cl`, for which the “hERG current change (%, negative = inhibition) at 10uM” value is on record as 9.59%.

Consider `CC(C)N(C(=O)C[n+]1ccc(/C=N/O)cc1)C(C)C`, for which the “hERG current change (%, negative = inhibition) at 10uM” value turned out to be 9.47%.

On to `COc1cccc(C(=O)N(C)CC(=O)Nc2ccc(F)c(F)c2F)c1`, for which the “hERG current change (%, negative = inhibition) at 10uM” value was 11.4%.

Turning to `CCCC(=O)NCc1ccc2c(c1)cc(C)n2C`, the “hERG current change (%, negative = inhibition) at 10uM” value turned out to be 5.43%.

In the case of `O=C(Nc1nccs1)c1ccccc1Br`, the “hERG current change (%, negative = inhibition) at 10uM” value is listed as -21.5%.

In the case of `CCOC(=O)c1ccc(NC(=O)c2ccc(CO)c(C(=O)NC3CCN(C(=O)OCC)CC3)c2)cc1`, the “hERG current change (%, negative = inhibition) at 10uM” value came to 25.4%.

Turning to `COc1ccc(C(CNC(=O)c2ccc(S(=O)(=O)N(C)C)cc2)N2CCCC2)cc1` (centres unmarked), the “hERG current change (%, negative = inhibition) at 10uM” value was determined as 4.17%.

Consider `Cc1cnc(NC(=O)C2CCCO2)s1` (centres unmarked), for which the “hERG current change (%, negative = inhibition) at 10uM” value is given as -23.1%.

Consider `Cc1nn2c3ccccc3n(C)c2nc1=O`, for which the “hERG current change (%, negative = inhibition) at 10uM” value was 14.3%.

On to `COc1ccc(CNC(=O)/C=C/c2cc([N+](=O)[O-])ccc2OC(F)F)cc1OC`, for which the “hERG current change (%, negative = inhibition) at 10uM” value is listed as -16%.

As to `Cc1ccc(OC(=O)c2cccc([N+](=O)[O-])c2)c(-n2nc3ccccc3n2)c1`, the “hERG current change (%, negative = inhibition) at 10uM” value came out at 23.4%.

Take `Cc1ccc(C(C[N+](=O)[O-])c2c(N)n(C)c(=O)n(C)c2=O)cc1` (centres unmarked): the “hERG current change (%, negative = inhibition) at 10uM” value is 9.93%.

As for `O=C(Cn1nnc(-c2ccc(F)cc2)n1)Nc1ccc2c(c1)OCCO2`, the “hERG current change (%, negative = inhibition) at 10uM” value stood at 10.3%.

`O=c1c2cc(F)ccc2sn1-c1ccccc1`: the “hERG current change (%, negative = inhibition) at 10uM” value turned out to be 15.5%.

As to `COc1ccc(-c2nn(-c3ccccc3)cc2CNCCN2CCOC2=O)c(F)c1`, the “hERG current change (%, negative = inhibition) at 10uM” value was -11.9%.

Regarding `O=C(CSc1nc(-c2ccc(F)cc2)cc(C(F)(F)F)n1)Nc1ccc2c(c1)OCO2`, the “hERG current change (%, negative = inhibition) at 10uM” value is on record as 4.25%.

Turning to `C=CCn1c(=O)/c(=C2/Sc3cc(OC)ccc3N2C)s/c1=C1\C(=O)N(CC)C(=S)N1C`, the “hERG current change (%, negative = inhibition) at 10uM” value was 10.1%.

On to `COc1ccc(Cl)cc1NC(=O)C(=O)NC1CCCCCC1`, for which the “hERG current change (%, negative = inhibition) at 10uM” value is -3.2%.

In the case of `CC(C)(C)N1C(=O)c2ccccc2NC(=O)N1Cc1ccccc1`, the “hERG current change (%, negative = inhibition) at 10uM” value worked out at 10.3%.

As to `COc1ccc(-n2c(Cc3cccn3C)nnc2SCC(=O)Nc2cccc(OC)c2)cc1`, the “hERG current change (%, negative = inhibition) at 10uM” value is -23.4%.

Turning to `CC(=O)Oc1c(Cl)c(N2CCOCC2)c(OC(C)=O)c2ccccc12`, the “hERG current change (%, negative = inhibition) at 10uM” value is on record as -25.2%.

As for `O=C(O)C1CC=CCC1C(=O)NCc1ccc(Cl)c(Cl)c1` (centres unmarked), the “hERG current change (%, negative = inhibition) at 10uM” value is listed as -24.5%.

In the case of `CC(=O)c1ccc(NC(=S)Nc2ccc(N3CCOCC3)cc2)cc1.Cl`, the “hERG current change (%, negative = inhibition) at 10uM” value is listed as -3.37%.

For the compound `O=C1CC(N2CCN(Cc3ccc(Cl)cc3)CC2)C(=O)N1CCc1ccccc1` (centres unmarked), the “hERG current change (%, negative = inhibition) at 10uM” value is -37.4%.
